# Reference: article PMC4336329 (PLoS ONE, 2015)
# The campaign covered roughly 310,000 compounds. About 14,000 (4.5%) showed an effect of 50% or more. Effects have a minus sign here. Some of the results follow.
# Biological target: human ether-à-go-go-related gene (hERG) potassium channel (human, UniProt Q12809)
# Assay: primary screen, population patch clamp on CHO cells stably expressing hERG
# 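Further: peak tail current of the secondary pulse compared with the same well before compound.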
# Sequence of human ether-à-go-go-related gene (hERG) potassium channel (Q12809 whole entry, looked up): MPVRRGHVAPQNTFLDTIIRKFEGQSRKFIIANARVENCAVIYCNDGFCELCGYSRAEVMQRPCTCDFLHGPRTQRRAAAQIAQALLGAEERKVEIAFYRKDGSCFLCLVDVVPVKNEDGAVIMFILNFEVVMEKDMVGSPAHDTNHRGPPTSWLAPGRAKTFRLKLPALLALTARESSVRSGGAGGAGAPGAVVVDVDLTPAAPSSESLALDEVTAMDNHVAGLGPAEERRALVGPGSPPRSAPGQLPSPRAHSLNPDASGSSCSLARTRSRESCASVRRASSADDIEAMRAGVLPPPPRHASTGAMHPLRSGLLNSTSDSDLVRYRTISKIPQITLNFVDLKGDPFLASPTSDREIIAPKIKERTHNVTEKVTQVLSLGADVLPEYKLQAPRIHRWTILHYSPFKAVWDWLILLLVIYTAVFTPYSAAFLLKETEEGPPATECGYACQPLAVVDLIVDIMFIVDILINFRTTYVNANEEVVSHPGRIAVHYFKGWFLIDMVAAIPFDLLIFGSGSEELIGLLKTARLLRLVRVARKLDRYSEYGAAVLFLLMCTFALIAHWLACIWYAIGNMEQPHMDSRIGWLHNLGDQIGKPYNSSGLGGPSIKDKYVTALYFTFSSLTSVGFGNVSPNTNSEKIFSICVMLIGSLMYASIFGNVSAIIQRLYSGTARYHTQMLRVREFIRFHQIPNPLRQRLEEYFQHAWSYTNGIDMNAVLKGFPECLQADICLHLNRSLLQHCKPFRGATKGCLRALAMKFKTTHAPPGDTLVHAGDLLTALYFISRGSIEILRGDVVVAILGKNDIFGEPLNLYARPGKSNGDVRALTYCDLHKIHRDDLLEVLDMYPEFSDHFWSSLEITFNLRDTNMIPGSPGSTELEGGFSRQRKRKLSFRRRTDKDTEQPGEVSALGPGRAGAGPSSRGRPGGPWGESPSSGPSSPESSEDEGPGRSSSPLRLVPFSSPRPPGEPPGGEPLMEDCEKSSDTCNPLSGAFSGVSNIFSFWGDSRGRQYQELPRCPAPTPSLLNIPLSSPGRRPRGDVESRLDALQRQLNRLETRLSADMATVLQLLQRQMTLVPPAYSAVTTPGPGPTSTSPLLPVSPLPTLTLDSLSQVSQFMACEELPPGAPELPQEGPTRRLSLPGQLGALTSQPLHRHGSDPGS
row,SMILES,"hERG current change (%, negative = inhibition) at 10uM [%]"
1,COc1ccc(-c2nnc3n(CCc4ccccc4)c(=O)c4ccccc4n23)cc1OC,-20.6
2,CCn1cc(/C=N\NC(=O)C2(C)CC2(Cl)Cl)c(C)n1 (stereo not shown),10
3,O=C(Nc1nnc(-c2ccncc2)s1)Nc1ccccc1F,14.2
4,CC1Cc2cc(/C=C3/SC(=S)N(C)C3=O)ccc2O1 (stereo not shown),17.6
5,O=C(O)C/C(=C\c1ccc2c(c1)OCO2)c1nc2ccccc2s1,3.82
6,CCOC(=O)c1cnn(CCOC(=O)Cc2cccs2)c1NC(=O)Cc1cccs1,-17.6
7,CCCNC(=O)C(Cc1cccc(C#N)c1)NC(=O)c1ccc(C#N)cc1 (stereo not shown),-55.9
8,CCOc1cc(N2CCOCC2)c(OCC)cc1NC(=O)COC(=O)CCOc1ccc(C)cc1,-3.51
9,CC(C(=O)Nc1ccc(F)c(F)c1)N1CCN(C)CC1.O=C(O)C(=O)O (stereo not shown),2.42
10,COc1ccccc1C(=O)NCc1nnc(SC(C)C(=O)Nc2nccs2)n1C (stereo not shown),4.08
11,CCc1ccccc1NC(=O)C1CC(c2ccc(OC)cc2)=NO1 (stereo not shown),5.19
12,CC(C)(C)OC(=O)C1C(=O)CC(C)(O)C(C(=O)OC(C)(C)C)C1c1cccnc1 (stereo not shown),15.3
13,C[C@H](NC(=O)C1CC(=O)N(c2ccc3c(c2)OCO3)C1)C(=O)NC1CCCCC1 (stereo partly shown),-13.2
14,CC1CC(C)CN(C(=O)Cn2c(SCC(=O)N3CCc4ccccc4C3)nc3ccccc32)C1 (stereo not shown),-8.26
15,O=C1CCCN1CC(O)CS(=O)(=O)Cc1ccc(Cl)cc1Cl (stereo not shown),-2.77
16,CCC(C)/C(C)=N/NC(=O)CNS(=O)(=O)c1ccc([N+](=O)[O-])cc1 (stereo not shown),-19.7
17,CCOC(=O)Nc1sc(C)nc1-c1ccccc1,-3.71
18,CC(=O)C[C@H]1c2ccccc2S(=O)(=O)N1c1ccccc1,23
19,CN(CC(=O)Nc1c(Cl)cccc1Cl)C(=O)CCC1CCCC1,10.6
20,O=c1[nH]c(=S)[nH]c(O)c1N=Nc1ccc(S(=O)(=O)N2CCOCC2)cc1,16
21,CS(=O)(=O)c1ccc(Sc2nc3ccccc3[nH]2)c([N+](=O)[O-])c1,-24.9
22,CCOC(=O)c1c(C)[nH]c(C)c1C(=O)COC(=O)/C=C/c1cccc(C(F)(F)F)c1,1.35

row,SMILES,"hERG current change (%, negative = inhibition) at 10uM [%]"
1,Cc1nn2cc(-c3ccccc3)nc2s1,4.23
2,O=C(Nc1ccc2c(c1)OCO2)c1cccc(S(=O)(=O)N2CCCC2)c1,-15.9
3,O=C(O)c1ccc(-c2ccc(-c3ccccc3)cc2)s1,15.4
4,O=C(CCCOc1ccc(Br)cc1)NNC(=O)c1ccncc1,-7.05
5,O=C1CC(c2ccccc2)n2nc(N3C(=O)CCC3=O)nc2N1 (stereo not shown),4.14
6,Cc1cn(-c2cc(C(=O)Nc3ccc(C)c(NC(=O)N4CCNC4=O)c3)cc(C(F)(F)F)c2)cn1,10.6
7,CC(NC(=O)c1ccco1)C1CCCO1 (stereo not shown),-12.7
8,Cc1cc(C)nc(SCc2ccc(C(=O)N/N=C3\CC(C)CC(C)(C)C3)cc2)n1 (stereo not shown),-16.7
9,CCOC(=O)c1cnc(SCC(=O)Nc2nnc(CC)s2)nc1N,8.46
10,COCCCNS(=O)(=O)c1ccc(SC)cc1,3.73
11,CCc1ccc(-c2nc(CS(=O)CC(=O)NCCN3CCCCCC3)c(C)o2)cc1 (stereo not shown),-17.2
12,COc1nc2ccc(C)cc2cc1-c1noc(-c2ccccc2)n1,1.72
13,Cl.OCCN(CC#CC(O)(c1ccccc1)c1cccc(F)c1)CCO (stereo not shown),1.86
14,COCc1cc(C)nc2sc(C(=O)NC3CCCCC3)c(N)c12,-4.65
15,CCC(C)c1ccc(OCCCCN2CCOCC2)cc1 (stereo not shown),-36.8
16,Cc1ccc(C)c(NC(=O)CNC(=O)N2CC(=O)Nc3ccccc32)c1,15.3
17,COc1ccc(N2C(=O)C3CCCN3C2=O)cc1 (stereo not shown),-10.2
18,O=C(OCCN1CCOCC1)c1ccc(O)cc1,8.93
19,CCc1ccc(-c2ccc(SCC(=O)Nc3nnc(C)s3)nn2)cc1,12.7
20,O=C(COC(=O)c1ccccc1)Nc1ccc2[nH]c(=O)[nH]c2c1,-6.15
21,CCOc1ccc(N2C(=O)CS/C2=C(\C(Cl)=C(Cl)Cl)[N+](=O)[O-])cc1,2.32
22,COc1ccc(S(=O)(=O)N2CCOC2CNC(=O)C(=O)NCCc2ccccc2OC)cc1C (stereo not shown),-9.22

row,SMILES,"hERG current change (%, negative = inhibition) at 10uM [%]"
1,O=C(CCc1ccccc1)NCCc1ccc(F)cc1,-0.23
2,CC1CC(OCC(O)CN2CCOCC2)CC(C)(C)C1.Cl (stereo not shown),1.1
3,O=C(COC(=O)C1=COCCO1)Nc1cccc(S(=O)(=O)N2CCOCC2)c1,10.8
4,O=C(Nc1ccc(N2CCOCC2)c(Cl)c1)c1ccc(Br)o1,-31.9
5,CCC(C(=O)Nc1ccc(S(=O)(=O)N2CCN(C)CC2)cc1)c1ccccc1 (stereo not shown),10.4
6,C=CCn1c(C(C)(C)C)nc2ccccc21,-11.2
7,COc1ccc(OC)c(S(=O)(=O)n2nc(C)cc2C)c1,-15.4
8,Cc1nn(C(C)(C)C)c(OC(=O)c2ccc3c(c2)OCO3)c1Sc1ccccc1,8.59
9,COc1ccc(N2C(=O)C(CC(=O)O)S/C2=N\N=C\c2cccs2)cc1 (stereo not shown),11.5
10,O=C(Cn1cc(C(F)(F)F)cc(Cl)c1=O)Nc1ccc(N2CCOCC2)cc1,15.5
11,COc1cc(C(=O)N/C(=C/c2ccc(F)cc2)C(=O)NC(C(=O)O)c2ccccc2)cc(OC)c1OC (stereo not shown),10.8
12,CCN(CC)c1ccc2cc(S(=O)(=O)c3ccc(C)cc3)c(=O)oc2c1,3.25
13,Cc1nc2c(c(=O)n1CCC(C)C)c1nc3ccccc3nc1n2CC1CCCO1 (stereo not shown),-38.3
14,Cc1cc(C)c(S(=O)(=O)Nc2c(C)[nH]c(=O)[nH]c2=O)c(C)c1,4.92
15,CCN(CC)c1ccc(S(=O)(=O)N2CCOCC2)cc1NC(=O)CNCc1ccccc1.O=C(O)C(=O)O,-20.9
16,Cc1cc(S(=O)(=O)NCCN(C)C)c(C)s1.Cl,11.5
17,CCCNC(=O)CN1C(=O)NC(c2ccccc2)(c2ccccc2)C1=O,-3.7
18,Oc1ccc(C[C@@H]2CNCCN2CCc2cc(C(F)(F)F)cc(C(F)(F)F)c2)cc1,-49.6
19,CCC(=O)N1CCN(C(C)=O)C1c1ccccc1 (stereo not shown),11.7
20,Cc1c(-c2ccc(Br)cc2)[n+](=O)c2c(n1[O-])CCCC2,15
21,O=C(c1cc2cc(F)ccc2[nH]1)N1CCc2ccccc2C1,14.3
22,Cc1cccc2cc(CN(Cc3ccc(F)cc3)C(=O)N3CCOCC3)c(=O)[nH]c12,-14.2

row,SMILES,"hERG current change (%, negative = inhibition) at 10uM [%]"
1,Cc1cc(Cl)ccc1OCCCC(=O)OCC(=O)c1c(N)n(C)c(=O)n(C)c1=O,-21.8
2,O=C(Nc1ccccc1Cl)C1(c2ccccc2)CC1(Cl)Cl (stereo not shown),-0.213
3,COc1ccc(-n2c(SCC(=O)N3CCCCC3C)nnc2-c2cccnc2)cc1 (stereo not shown),-18.5
4,O=C(N/N=C/c1ccc(O)cc1O)c1ccncc1,8.11
5,CCC(NC(=S)NC1CCCCC1)c1ccc(C)cc1 (stereo not shown),8.56
6,O=C(NC(=S)NC1CCS(=O)(=O)C1)c1ccccc1Br (stereo not shown),16.3
7,O=C(N/N=C/c1cc([N+](=O)[O-])ccc1Cl)c1ccc2nc[nH]c2c1,-3.36
8,COc1ccc(N2CCN(C(=O)CNC(=O)c3ccco3)CC2)cc1,7.74
9,O=C(CN1c2cccc3cccc(c23)S1(=O)=O)NCc1ccc2c(c1)OCO2,-18.3
10,CC1CCN(C(=O)c2cc(-c3ccc4c(c3)OCO4)on2)CC1,-26.7
11,NC(=O)c1ccsc1NC(=O)COC(=O)c1ccc(Cl)cc1,-5.38
12,CCOC(=O)CC(=O)CSc1nc(N)c(C#N)c(-c2ccc(F)cc2)c1C#N,-0.677
13,CCOc1ccc(NS(=O)(=O)c2ccc(OCC(=O)NCc3ccncc3)cc2)cc1,6.55
14,CC(C)c1ccc(CNC(=O)C2CC(=O)N(C3CCCCC3)C2)cc1 (stereo not shown),-6.47
15,COc1ccc(N2C(=O)C3CCCN3C2c2cccc(OC)c2OC)cc1 (stereo not shown),0.464
16,NC/C(=N\O)c1ccc(Cl)cc1Cl,5.32
17,Cc1ccccc1C(=O)N/N=C1\SCC(=O)N1Cc1ccco1,1.02
18,COCc1cc(C)nc(N/N=C/c2ccc(-c3ccc(C(=O)O)c(Cl)c3)o2)c1C#N,24.6
19,CC(=O)c1ccc(NC(=O)c2ccc(S(=O)(=O)N3CCCC3)cc2)cc1,-2.94
20,Cc1ccc(-c2nnc(NCc3nc4ccccc4[nH]3)c3ccccc23)cc1S(=O)(=O)N1CCCCC1.Cl,-7.08
21,Cc1cc(=O)[nH]c(N/N=C/c2c(O)n(-c3ccccc3)c(=O)c3ccccc23)n1,0.166
22,c1ccc(OCc2nnnn2-c2ccccc2)cc1,-0.317
